Results as given in publication PMC4336329 (PLoS ONE, 2015).
Out of some 310,000 compounds screened, about 2,200 (0.71%) showed an effect of 50% or more. The effect is printed as a negative number. This is one part of the list.

These compounds were tested against human ether-à-go-go-related gene (hERG) potassium channel (human, UniProt Q12809) (assay: primary screen, population patch clamp on CHO cells stably expressing hERG).
human ether-à-go-go-related gene (hERG) potassium channel, sequence (Q12809 whole entry, looked up): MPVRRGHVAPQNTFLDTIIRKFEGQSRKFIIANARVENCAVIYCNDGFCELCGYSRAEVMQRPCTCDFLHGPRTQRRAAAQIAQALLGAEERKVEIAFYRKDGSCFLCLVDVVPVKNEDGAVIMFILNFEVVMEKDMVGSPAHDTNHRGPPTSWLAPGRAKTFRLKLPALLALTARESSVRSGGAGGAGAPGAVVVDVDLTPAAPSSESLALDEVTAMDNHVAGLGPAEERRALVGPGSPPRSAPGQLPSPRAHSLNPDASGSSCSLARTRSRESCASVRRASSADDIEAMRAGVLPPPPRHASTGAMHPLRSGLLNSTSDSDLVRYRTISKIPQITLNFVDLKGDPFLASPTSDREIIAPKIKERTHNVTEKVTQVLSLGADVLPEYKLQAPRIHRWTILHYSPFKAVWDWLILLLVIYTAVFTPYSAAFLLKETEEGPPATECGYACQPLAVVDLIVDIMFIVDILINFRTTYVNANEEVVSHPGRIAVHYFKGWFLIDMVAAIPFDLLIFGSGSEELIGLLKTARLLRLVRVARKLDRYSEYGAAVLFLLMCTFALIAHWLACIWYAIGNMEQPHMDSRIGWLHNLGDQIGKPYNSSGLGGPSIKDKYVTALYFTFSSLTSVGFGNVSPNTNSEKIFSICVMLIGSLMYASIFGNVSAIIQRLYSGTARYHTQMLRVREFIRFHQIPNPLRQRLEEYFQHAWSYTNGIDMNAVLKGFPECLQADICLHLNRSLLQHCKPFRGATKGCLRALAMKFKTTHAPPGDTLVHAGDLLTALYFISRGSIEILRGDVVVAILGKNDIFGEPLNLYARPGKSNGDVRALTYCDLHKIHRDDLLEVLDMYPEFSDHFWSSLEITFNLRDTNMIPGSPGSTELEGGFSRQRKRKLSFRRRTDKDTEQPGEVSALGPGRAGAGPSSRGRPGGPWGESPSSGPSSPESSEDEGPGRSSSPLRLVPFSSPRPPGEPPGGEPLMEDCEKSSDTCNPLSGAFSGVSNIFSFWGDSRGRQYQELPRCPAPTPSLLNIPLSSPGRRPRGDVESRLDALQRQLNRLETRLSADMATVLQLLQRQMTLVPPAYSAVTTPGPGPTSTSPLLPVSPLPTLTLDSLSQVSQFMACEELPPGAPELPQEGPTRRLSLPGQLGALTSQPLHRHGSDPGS

Structure (SMILES)	hERG current change (%, negative = inhibition) at 1uM
COCCCNC(=O)Cn1cc(/C=C2\C(=O)NC(=O)N(c3ccccc3F)C2=O)c2ccccc21	9.61%
CCN1CCN(C(=O)c2cc3c(s2)-c2ccccc2S(=O)(=O)C3)CC1	2.4%
Cc1ccc(CNC(=O)CC2Nc3c4ccccc4nc(=S)n3C2=O)cc1 (stereo not shown)	53.5%
CCOc1ccc(-n2c(=O)c3sccc3n(CC(=O)Nc3cccc(OC)c3)c2=O)cc1	13.6%
Cc1onc(-c2ccccc2Cl)c1C(=O)Nc1ccc(OCC(=O)N2CCOCC2)cc1	-2.98%
COc1cc(NC(=S)N2CCc3ccccc3C2)cc(OC)c1	-1.51%
Cc1ccc(-c2nn(CC(=O)N(C)C)c(=O)c3ccccc23)cc1S(=O)(=O)N(C)C	5.75%
O=C(CCN1C(=O)c2ccccc2C1=O)N1CCCCCC1	3.21%
Cc1[nH]c2ccccc2c1C1(O)C(=O)N(Cc2ccc3c(c2)OCO3)c2ccccc21 (stereo not shown)	7.12%
CCOC(=O)c1c(-c2ccc(OC)cc2)oc2ccc(OC(=O)N(C)C)cc12	7.71%
CC(=O)Oc1ccc(-c2csc(Nc3ccc(Cl)cn3)n2)cc1	18.2%
COc1ccc(CN2CCN(S(=O)(=O)c3ccccc3)CC2)c(OC)c1.O=C(O)C(=O)O	-18.3%
COc1cc2cc3c(N)c(C(=O)Nc4sc(C)c(C)c4C#N)sc3nc2cc1OC	-5.66%
CCn1nc(C)c(CN2CCc3c([nH]c4ccccc34)C2C(C)(C)C)c1C (stereo not shown)	9.7%
Cc1nc2ccccc2cc1C(=O)N/N=C/c1ccc([N+](=O)[O-])cc1	-8.59%
Cc1[nH]nc(Nc2ccc(Br)cc2)c1[N+](=O)[O-]	-1.21%
CCNc1nc(NCC)nc(N/N=C/c2ccc(Br)cc2)n1	8.67%
Cc1ccc(-c2nnc(NC(=O)Cc3ccc(F)cc3)o2)c(C)c1	4.13%
Cc1ccc(C)c(S(=O)(=O)N(C(=O)c2ccncc2)c2ccc(OC(=O)c3ccncc3)cc2)c1	12.9%
C/C(=N\NC(=O)Cn1c(C)nc2ccccc21)c1cccs1	1.72%
Cc1ccccc1Nc1nc(N)nc(CSc2nnc(C)n2C)n1	18.7%
CCC(C)N(C)Cc1cccc(C2(O)CCN(S(=O)(=O)c3ccc(F)cc3)CC2)c1 (stereo not shown)	-30.8%
CCCCN(CC)CCNC(=O)CCC(=O)Nc1ccc2nc(N3CCN(C)CC3)cc(C)c2c1	8%
COc1ccccc1CC(=O)NCC1CCCO1 (stereo not shown)	12%
N#Cc1c(-c2ccccc2)c(-c2ccccc2)n[nH]c1=O	14.8%
CCOc1cccc(C2C(C#N)=C(N)Oc3cc(C)n(Cc4ccccn4)c(=O)c32)c1OCC (stereo not shown)	17.2%
CCSc1nc2ccccc2n1CC(=O)OC	6.93%
CN1C(=O)/C(=C/c2cccn2-c2ccc3ccccc3c2)C(=O)NC1=S	8.27%

Structure (SMILES)	hERG current change (%, negative = inhibition) at 1uM
CC(=O)c1ccc(Nc2cc(C)nc3nc(C)nn23)cc1	-21.4%
CCn1c2ccccc2c2cc(NC(=O)CSc3nccc(=O)[nH]3)ccc21	14.7%
O=C(COc1cccnc1[N+](=O)[O-])Nc1cccc(S(=O)(=O)N2CCCCC2)c1	8.08%
O=C(Nc1cccc(C(F)(F)F)c1)Nc1ccc2[nH]c(=O)[nH]c2c1	10.5%
O=C(NC1CCCc2ccccc21)C1CCN(S(=O)(=O)c2cnc[nH]2)CC1 (stereo not shown)	14.5%
CCCCOc1ccc(C(=O)N(Cc2ccco2)C2CCS(=O)(=O)C2)cc1 (stereo not shown)	13.9%
Clc1ccc2c(N/N=C/c3cccnc3)ccnc2c1	-21.6%
CCOC(=O)C(CC)(CCC(=O)O)c1csc(Nc2ccc(C)cc2)n1 (stereo not shown)	11.8%
CC(NC(=O)CNC(=O)[C@@H]1Cc2ccccc2CN1)c1ccccc1 (stereo partly shown)	7%
CCc1cccc(NC(=O)COC(=O)C2CCN(c3ccc(C(F)(F)F)cn3)CC2)c1	7.33%
COc1ccc2c(c1)C(=O)N(c1ccccc1OC)C(=O)C2	15.1%
CC(=O)C1=C(O)C(=O)N(Cc2cccnc2)C1c1ccc(Cl)cc1 (stereo not shown)	12.2%
CCOCc1nnc(NC(=O)C2CCN(C(=O)c3ccco3)CC2)s1	14.4%
CNC(=O)C(Sc1nc(C)nc2c1oc1ccccc12)C(C)=O (stereo not shown)	10.4%
CCc1nnc(NC(=O)c2sc3nc4c(cc3c2N)CCCCCC4)s1	8.62%
CCOC(=O)C1=C(C)Nc2nc3ccccc3n2C1c1ccc(O)cc1 (stereo not shown)	10.5%
O=C(COc1ccc(Br)cc1)Nc1ccc2oc(=O)ccc2c1	6.49%
Cc1ccc(C)c(Nc2c([N+](=O)[O-])c(=O)oc3ccccc23)c1	3.87%
CCOc1ccc(-n2nnnc2SCC(=O)Nc2cccc(O)c2)cc1	12.5%
O=C(/C=C/c1cccc(F)c1)c1ccc(N2CCOCC2)cc1	-0.411%
COc1cccc(C(=O)C2CCCN(Cc3cn[nH]c3C3CCCCC3)C2)c1 (stereo not shown)	1.53%
COc1cccc(CN2CCN(Cc3cc4ccccc4[nH]3)CC2CCO)c1 (stereo not shown)	-14.3%
OCc1nc2ccccc2n1C/C=C/c1ccccc1	4.41%
Cc1[nH]n(-c2ccccc2)c(=O)c1C=NCc1ccco1	8.95%
CCS(=O)(=O)c1nc(S(=O)(=O)c2ccc(C)cc2)c(N2CCC(C)CC2)s1	7.27%
O=C(CSc1nn(-c2ccccc2)c(=S)s1)NC1CCS(=O)(=O)C1 (stereo not shown)	11%
Br.CC(C)CC1CC(C)(c2csc(NNC(=O)c3ccccc3)n2)OC1=O (stereo not shown)	-11.3%
